Experimental data taken from PubChem BioAssay AID485344 (National Center for Advancing Translational Sciences (NCATS), 2010).
The campaign covered roughly 340,000 compounds. About 6,900 (2%) were called active. No stated cut-off is given here; in the data, active means inhibition above about 30%; inactive means below that, where a call was filed. The entries are a selection whose mix differs from that of the whole data set. Where no call is shown, the source filed none.

What follows are compounds tested against D(2) dopamine receptor (Homo sapiens) (UniProt P14416) (assay: HTS Assay for Allosteric Antagonists of the Human D2 Dopamine Receptor: Primary Screen for Antagonists). Conditions: HEK293 TREx D2 cells, calcium flux, dopamine EC80; at 10 µM; stronger effect = higher value.
Method in brief: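 Inhibition of EC80 dopamine-driven calcium flux, recorded kinetically, defines activity here; cells are a tetracycline-induced HEK293 T-REx line expressing force-coupled D2.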
Further: 0% is about no effect.

Chain of UniProt P14416 (P14416 whole entry, looked up): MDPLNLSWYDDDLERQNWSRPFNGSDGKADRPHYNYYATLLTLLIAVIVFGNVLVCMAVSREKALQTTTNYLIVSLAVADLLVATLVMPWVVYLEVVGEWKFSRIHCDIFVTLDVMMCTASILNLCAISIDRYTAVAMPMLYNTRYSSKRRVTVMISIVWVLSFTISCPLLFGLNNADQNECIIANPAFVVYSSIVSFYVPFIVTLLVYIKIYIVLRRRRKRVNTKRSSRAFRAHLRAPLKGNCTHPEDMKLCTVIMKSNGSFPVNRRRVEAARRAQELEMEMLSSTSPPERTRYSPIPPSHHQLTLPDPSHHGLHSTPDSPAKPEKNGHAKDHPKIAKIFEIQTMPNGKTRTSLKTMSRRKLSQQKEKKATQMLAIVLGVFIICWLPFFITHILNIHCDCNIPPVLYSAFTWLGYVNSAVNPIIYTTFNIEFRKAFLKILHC

| SMILES | inhibition |
| --- | --- |
| CCSc1ncc(Cl)c(C(=O)Nc2cc(C)ccc2C)n1 | 2.11% |
| COc1ccccc1C(=O)OCc1cc(=O)n2c(C)csc2n1 | 12.4% |
| CC(=O)c1c(C)n(-c2cccc(Cl)c2)c2ccc(OC(=O)c3ccccc3)cc12 | -0.303% |
| CCCOC(=O)c1c(-c2ccccc2)c(-c2ccccc2)nn(C)c1=O | -10% |
| Cc1cc(C)c(-c2n[nH]c3c2C(c2ccccc2F)N(CCO)C3=O)c(O)c1 (stereo not drawn) | -2.25% |
| COc1ccc(-c2[nH]c(-c3ccc(C)cc3)nc2SCC(=O)NCC2CCCO2)cc1 (stereo not drawn) | 21% |
| COc1ccccc1CNCC(O)Cn1c2ccccc2c2ccccc21 (stereo not drawn) | active: 42.3% |
| COc1cccc(NC(=O)CSc2nc(=O)[nH]c3c2CCCC3)c1 | -4.95% |
| CCOc1ccc(NC(=O)c2nn(C)c3c2COc2ccccc2-3)cc1 | 2.82% |
| CCOc1ccc(S(=O)(=O)Nc2cc3c(C(=O)OCc4ccccc4)c(C)oc3c3ccccc23)cc1 | 5.48% |
| COc1ccc2c(c1)c1c(c(=O)n(-c3cc(Cl)ccc3C)c(=O)n1Cc1ccc(F)cc1)n2C | 7.55% |
| Cc1c(Cl)cccc1-n1ncc(C(=O)NC2CCCC2)c1C1CCN(C(=O)OC(C)(C)C)CC1 | 10.8% |
| Cc1ccc(NC(=O)N2CCN3CCCCC3C2)cc1C (stereo not drawn) | -10% |
| CCc1cc(=O)n2[nH]c(C)c(-c3ccc(OC)cc3)c2n1 | active: 33.7% |
| Cn1c(=O)n(C)c2cc(CNCc3ccccc3Cl)ccc21 | -9.46% |
| COc1cccc(C(=O)NCc2cn3cccc(C)c3n2)c1 | -2.57% |
| O=C(c1ccc(Cl)cc1)n1nc(-c2ccccc2)nc1NCc1ccco1 | 8.62% |
| CCCn1c(=N)c(C(=O)NC(C)c2ccccc2)cc2c(=O)n3ccccc3nc21 (stereo not drawn) | 5.73% |
| Cc1ccc2scc(N3CCCC(C)C3)c(=O)c2c1 (stereo not drawn) | -4.4% |
| CCOc1cc2[nH]c(=O)n(CCC(=O)N3CCN(c4ccccc4)CC3)c(=O)c2cc1OCC | 15.6% |
| Cc1ccc(-n2nc3c(N4CCCC(C(=O)NCc5ccccc5C)C4)nnc(C)c3c2C)cc1 (stereo not drawn) | -17.5% |
| O=C(NCCCNCCCNC(=O)c1ccccn1)c1ccccn1 | active: 74.1% |
| CCOC(=O)c1cc2c(=O)n3ccccc3nc2n(CCCOC)c1=NC(=O)c1cc2ccccc2o1 | 7.01% |
| COc1ccc(NC(=O)Cn2c(=O)n(Cc3ccccc3Cl)c(=O)c3cc(OC)c(OC)cc32)cc1 | -10.8% |
| Cc1ccc(CCNC(=O)c2cc3ccccn3n2)cc1 | -1.71% |

| SMILES | inhibition |
| --- | --- |
| Cc1ccc(Cn2c(C)c3cnn(CC(=O)N4CCN(c5cc(C)ccc5C)CC4)c(=O)c3c2C)cc1 | 11.5% |
| COc1cccc(-n2c(C)nc3c(cnn3-c3ccc(C)c(C)c3)c2=O)c1 | 0.537% |
| O=c1oc2ccc(Cl)cc2cc1-c1nc(-c2cccs2)no1 | 3.98% |
| Cc1ccc(C(=O)CC2(O)C(=O)N(CCc3ccccc3)c3ccc(Br)cc32)cc1 (stereo not drawn) | -15.5% |
| CCc1cccc(NC(=O)CN2C(=O)COc3ccc(S(=O)(=O)N4CCC(C)CC4)cc32)c1 | -17.4% |
| O=C1CSc2ccc(C(=O)NCC(c3ccco3)N3CCCCC3)cc2N1 (stereo not drawn) | active: 35.8% |
| CCOCCCNC(=O)C(c1ccc(OC)cc1)N(Cc1cccs1)C(=O)CNC(C)=O (stereo not drawn) | -14.9% |
| O=C(CN1C(=O)CCSc2ccc(S(=O)(=O)N3CCCC3)cc21)Nc1ccccc1Cl | -2.23% |
| CCCC12CN3CC(CCC)(CN(C1)C3c1c[nH]c3ccc(OC)cc13)C2=O (stereo not drawn) | -6.42% |
| CCCOc1ccc(CC2C(=O)Nc3ccc(Br)cc32)cc1 (stereo not drawn) | 16.4% |
| Cc1nc(CC(=O)Nc2ccc(C(N)=O)cc2)cs1 | 1.8% |
| CCSC1=NC2(CCN(C(=O)NC3CCCCC3)CC2)N=C1c1ccc(OC)cc1 | 5.92% |
| CN(Cc1ccccc1)C(=O)c1ccccc1NC(=O)c1ccco1 | active: 31.2% |
| CC(C(=O)NCc1ccccc1)n1ccc2cc(S(=O)(=O)N3CCCC3)ccc21 (stereo not drawn) | -4.19% |
| COc1ccc(NC(=O)Cn2c(=O)n(Cc3ccco3)c(=O)c3sc4ccccc4c32)cc1Cl | 9.88% |
| CC(C)c1ccc(NC(=O)CN2C(=O)C3(SCC(=O)N3c3ccc(F)cc3)c3ccccc32)cc1 (stereo not drawn) | 0.718% |
| Cc1ccc(N2CCn3c2nc2c3c(=O)n(Cc3cccc(Cl)c3)c(=O)n2C)cc1C | 14.7% |
| O=C(Nc1ccc(Cl)cc1)c1ccc2c(c1)N(Cc1ccccc1)CCS2 | -2.23% |
| O=C(CSc1nc2ccccc2n1Cc1cccc(Cl)c1)N1CCN(c2ccc(F)cc2)CC1 | 8.83% |
| c1ccc(N2CCN(c3ncnc4c3nc3n4CCCC3)CC2)cc1 | 6.42% |
| COc1ccc(OC)c(CNC(=O)Cn2nc(C)c3c(C)n(-c4ccccc4)nc3c2=O)c1 | -12.7% |
| O=C(Nc1ccc(Cl)cc1)c1ccc2c(c1)N(Cc1ccccc1)C(=O)c1ccccc1S2(=O)=O | -6.42% |
| Cc1cc2oc(C(=O)Nc3cccc(-c4nc5ccccc5o4)c3)c(C)c2cc1Cl | -1.83% |
| CCOc1ccccc1CNC(=O)CC(C)n1ccc(C)n1 (stereo not drawn) | 8.92% |
| CCc1nn(CC(=O)NCc2cccc(OC)c2OC)c(=O)c2cc3occc3n12 | 6.35% |

| SMILES | inhibition |
| --- | --- |
| Cc1ccc(C(=O)COC(=O)C(Cc2c[nH]c3ccccc23)NC(=O)c2ccc(Br)cc2)cc1 (stereo not drawn) | 1.42% |
| O=C(COC(=O)CCNS(=O)(=O)c1ccccc1F)Nc1nnc(-c2ccccc2)o1 | active: 31.5% |
| O=C(NCCCO)C(=O)Nc1c2c(nn1-c1ccc(F)cc1)CSC2 | 26.6% |
| Cc1nnc(N2CCC(C(=O)NCc3ccc(N(C)C)cc3)CC2)c2nn(-c3ccccc3)c(C)c12 | -9.86% |
| COc1ccc(NC(=O)C2=C(C)Nc3nc(SC)nn3C2c2cc(OC)ccc2OC)cc1 (stereo not drawn) | 5.04% |
| Cn1c(=O)c2sccc2n2c(CCCC(=O)Nc3ccc(F)c(F)c3)nnc12 | 0.854% |
| COc1cccc(-c2nc(S(=O)(=O)c3ccccc3)c(NCc3ccccc3)o2)c1 | 8.06% |
| COc1cccc(-c2cc(C(F)(F)F)nc(NCc3ccc(F)cc3)n2)c1 | 5.14% |
| COc1ccc(CCNC(=O)c2ccc3c(c2)nc2n3CCOC2)cc1OC | 15.4% |
| O=C(NCCSCc1ccco1)Nc1cc(Cl)cc(Cl)c1 | active: 30.3% |
| COc1ccc(C(=O)/C=C/c2cn(CC(O)CN(CC(C)C)CC(C)C)c3ccccc23)cc1OC (stereo not drawn) | 20.9% |
| Cc1c(C(=O)Nc2ccc(F)cc2F)nnn1-c1ccccc1Br | 14.7% |
| CC1=C(C(=O)Nc2ccccc2)C(c2ccncc2)n2nc(SCc3ccccc3)nc2N1 (stereo not drawn) | 10.8% |
| COCCCNC(=O)c1c(C)nn(-c2ccc(F)cc2)c1-n1cccc1 | -4.16% |
| Cc1cccc(NC(=O)c2sc3cccc(Cl)c3c2Cl)c1 | -1.66% |
| COc1ccc(CNC(=O)Cc2c(C)c3ccc(O)cc3oc2=O)cc1 | 20.3% |
| CNC(=O)c1c(NC(=O)c2cc(=O)c3ccccc3o2)sc2c1CCC2 | 2.18% |
| Cc1ccc(C)c(N2CCN(C(=O)CN3C(=S)NC(C)(C)CC3C)CC2)c1 (stereo not drawn) | active: 41.5% |
| COc1ccc(-c2nc3ccccc3s2)cc1NC(=O)c1ccccc1OC | 8.21% |
| CCCCNC(=O)CSc1c2c(nc3ccc(Cl)cc13)CCCC2 | -7.34% |
| Cc1cccc(OCCn2nnc3sc4c(c3c2=O)CCCC4)c1 | -1.29% |
| CCOc1ccc(CNCCNC(=O)c2nonc2N)cc1 | -4.95% |
| CC(C)c1ccc(NS(=O)(=O)c2ccc3[nH]cc(C(=O)NC4CCCCC4)c(=O)c3c2)cc1 | 0.684% |
| CC1=C(C(=O)Nc2ccc(C)cc2C)C(c2ccc(C(C)C)cc2)n2nc(C(F)(F)F)nc2N1 (stereo not drawn) | 10.1% |
| CCOC(=O)c1sc(NC(=O)c2nc(SC)ncc2Cl)c(C(=O)OCC)c1C | -3.74% |

| SMILES | inhibition |
| --- | --- |
| Cc1cccc(-n2cc(-c3ccccc3)nc2SCC(=O)Nc2ccccc2Cl)c1 | 12.2% |
| Cc1oc2ncn(CC(C)C)c(=O)c2c1C(=O)Nc1ccc(Cl)cn1 | -8.03% |
| FC(F)Sc1ccc(NC(=S)NCC2CCCCC2)cc1 | active: 31.9% |
| Cc1ccc(C)c(S(=O)(=O)NCC(c2ccc(N(C)C)cc2)N2CCOCC2)c1 (stereo not drawn) | 3.04% |
| CC(C)(C)OC(=O)N1CCC(c2c(C(=O)N3CCN(C4CCCCC4)CC3)cnn2-c2cccc(Cl)c2)CC1 | -1.98% |
| COc1ccc(NC(=O)CSC2=Nc3ccccc3C3=NC(CCC(=O)NCCc4ccccc4)C(=O)N23)cc1 (stereo not drawn) | -1.1% |
| Cc1oc2ncn(C)c(=O)c2c1C(=O)N(C)c1ccccc1F | 0.331% |
| COC(=O)c1ccc(NS(=O)(=O)c2ccc3[nH]c4c(c3c2)CCCCC4)cc1 | 4.44% |
| CCCCCCNCc1ccc(Br)cc1 | active: 30.4% |
| CCOC(=O)N1CCC(NC(=O)c2cnn(-c3cccc(C)c3)c2-n2cccc2)CC1 | 3.06% |
| COc1ccc(NC(=O)Nc2cn(CC(C)C)c(=O)c3ccccc23)c(OC)c1 | -6.1% |
| O=C1C2=C(Nc3ccccc3SC2c2c(F)cccc2Cl)c2ccccc21 (stereo not drawn) | 2.07% |
| O=C(NCCc1ccc(F)cc1)C(=O)NCC(c1cccs1)S(=O)(=O)c1cccs1 (stereo not drawn) | -24.3% |
| Fc1cccc(CN2CCC(Cc3ccccc3)CC2)c1 | active: 55.7% |
| COc1ccc(-c2cc(-c3ccccc3)nc3c2COc2ccc(Cl)cc2-3)cc1 | -5.04% |
| COc1ccc2[nH]cc(CCNC(=O)Nc3ccccc3C)c2c1 | 10.7% |
| CC1CCN(S(=O)(=O)c2ccc3nc(-c4cccnc4)cc(C(=O)NCCCOC(C)C)c3c2)CC1 | 19.6% |
| Cc1ccc(Cl)cc1NC(=O)c1oc2ccc(S(=O)(=O)N3CCC4(CC3)OCCO4)cc2c1C | 16.1% |
| COc1ccc(C)cc1NC(=O)CN1CCN(CC(=O)Nc2ccccc2F)CC1 | 15% |
| COc1cc(CN2CCc3nc(Nc4ccc5c(c4)OCCO5)ncc3C2)cc(OC)c1OC | -4.49% |
| Cc1ccc(Cn2c(C)c(CNC3CCCCC3)c(C(=O)O)c2C)cc1 | -0.879% |
| CCC(=O)N1CCc2cc(S(=O)(=O)NC(C(=O)NCc3ccc(OC)cc3)C(C)C)ccc21 (stereo not drawn) | -1.6% |
| COc1ccc(OC)c(CCNC(=O)CCCc2nnc3n(C)c(=O)c4sccc4n23)c1 | 2.71% |
